Laboratory results taken from PubChem BioAssay AID493208 (National Center for Advancing Translational Sciences (NCATS), 2011).
Among all 44,000 compounds or so, about 340 (0.77%) were called active. Roughly 5% stayed inconclusive and do not appear here. Calls follow the shape of the dose curve; as a rule, active = well fitted inhibition curve with a large enough effect; inconclusive = small, poorly fitted or top-dose-only effect; inactive = flat fitted curve, though single readings scatter. The list shows a part of the results.

Assay: Acumen qHTS Assay for Inhibitors of the mTORC1 Signaling Pathway in MEF (Tsc2-/-, p53-/-) Cells: Sytravon;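 also: plate controls were DMSO for no effect and rapamycin for full effect; nearly all actives have a fitted effect of over 50% in size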
Settings: phospho-rpS6 immunofluorescence/PI, 24 h; series mostly up to 38.3 µM; activity change, negative = inhibition: at the top concentration
In short: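 Compounds act on Tsc2-/-, p53-/- fibroblasts carrying an empty vector for 24 h before fixation and dual staining for phospho-S6 and DNA (propidium iodide). Values are percentages of cells above a rapamycin-defined pS6/PI threshold.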

Activity change, negative = inhibition, inactive:
Clc1cccc(-c2noc3ncnc(NC4CCCCC4)c23)c1 -13.3%, COc1ccc(Br)cc1CNC(=O)CCC(=O)N1CCSc2ccccc21 -3.37%, COc1cc(NC(=O)CCc2c(C)nc3c(c(C)nn3-c3ccccc3)c2C)cc(OC)c1OC 3.13%, CN1C(=O)C2CCCCN2c2ccc(C(=O)NCc3ccccc3Br)cc21 (stereo not drawn) -1.52%, COc1cccc2cc(-c3nc(-c4cccs4)no3)c(=O)oc12 -21.4%, CCOC(=O)c1c(C)c(C(=O)NCCc2ccc(OC)cc2)c(C)n1CC -0.162%, Cc1ccc(NS(=O)(=O)c2c(C(=O)N3CCCCCC3)c(C)n(C)c2C)cc1F 0%, CC(=O)c1c(C)n(-c2cccc(C)c2)c2ccc(OC(=O)COc3ccccc3)cc12 -0.375%, COc1cccc(-c2cc(C(=O)NCCc3ccc(C)cc3)[nH]n2)c1 -9.48%, O=C(Nc1ccc(Br)cc1)c1ccc(Br)c(S(=O)(=O)NCc2ccccc2)c1 -19.4%, CCOc1ccc(CNC(=O)Cn2nc(C)c3sc4ccccc4c3c2=O)cc1 -5.34%, COc1ccc(C)cc1NC(=O)CN1C(=O)CCc2cc(S(=O)(=O)N3CCOCC3)ccc21 0%, CCc1nn(CC(=O)Nc2c(C)cc(C)cc2C)c(=O)c2cc3sccc3n12 -10.1%, Cc1ccc(N(C)S(=O)(=O)c2ccc3[nH]cc(C(=O)O)c(=O)c3c2)cc1C -1.55%, Cc1ccc(C(c2sc3nc(-c4ccco4)nn3c2O)N2CCCCC2)cc1 (stereo not drawn) -0.554%, CC(=O)c1ccc(NC(=O)CSc2nc(-c3ccccc3F)nc3c2c(=O)n(C)c(=O)n3C)cc1 8.16%, CCOC(=O)c1c(-c2ccc(C)cc2)csc1NC(=O)c1cc(=O)c2cc(C)c(C)cc2o1 1.12%, CC1Cc2cc(S(=O)(=O)NCc3ccc(F)cc3)ccc2N1C(=O)C1CCC1 (stereo not drawn) -8.34%, Cc1ccc(NC(=O)C2CCN(c3nc4ccccc4[nH]3)CC2)cc1Cl 9.21%, O=C(NCc1cccs1)c1ccc(CSc2nc3ccncc3n2Cc2cccc(F)c2)cc1 1.33%, O=C(NC1(C(F)(F)F)NC(=O)N(CCc2ccccc2)C1=O)c1ccccc1F (stereo not drawn) -6.14%, Cc1ccc(NC(=O)CCc2c(C)nn(-c3ccc(N4CCCCC4)nn3)c2C)cc1F -14.3%, COc1cccc(CSc2nc3cc(OC)c(OC)cc3c3nc(CCn4nc(C)cc4C)nn23)c1 -0.352%, CCOc1ccc2nc(N(Cc3cccnc3)C(=O)c3ccc4c(c3)OCCO4)sc2c1 1.72%, COC(=O)c1cc2sc(C)cc2n1Cc1ccc(F)cc1Cl 0.247%, COC(=O)c1c(C)oc2c1cc(NS(=O)(=O)c1c(C)cc(C)cc1C)c1ccccc12 0.11%, O=S(=O)(c1ccc(Cl)cc1)c1nc(-c2ccccc2Br)oc1N1CCOCC1 11.1%, Cn1c(=O)c2c(nc(NCCc3ccccc3)n2Cc2cccc(Br)c2)n(C)c1=O 4.16%, O=c1n(Cc2ccc(F)cc2Cl)c2ccccc2c2nc(-c3ccccc3)nn12 3.19%, COc1ccc2c(c1)CCc1c(C(=O)Nc3c(C)nn(Cc4ccccc4Cl)c3C)noc1-2 -3.35%, Cc1ccc(CCNC(=O)c2nnc(Cc3cccc(F)c3)o2)cc1 3.41%, CC1Cc2ccccc2N1S(=O)(=O)c1nnc(NC(=O)c2ccccc2Br)s1 (stereo not drawn) -0.964%, COc1ccc(-c2cn3nc(N4CCCC(C(=O)Nc5ccc(Cl)cc5C)C4)sc3n2)cc1 (stereo not drawn) 5.53%, COc1ccc(S(=O)(=O)NCC(c2cccs2)S(=O)(=O)c2ccc(C)cc2)cc1F (stereo not drawn) -0.838%, Cc1[nH]c2ccc(F)cc2c1CCNC(=O)c1cc2cc(Cl)ccc2oc1=O 2.89%, CC(C)Oc1ccc(C(=O)Nc2ccc3oc(-c4ccncc4)nc3c2)cc1 4.22%, COc1cc(NC(=O)C(NC(=O)C2CCC(C)CC2)C(C)C)cc(OC)c1OC (stereo not drawn) -15.8%, COc1ccc(Cl)cc1NS(=O)(=O)c1c(C)nc2scc(C)n2c1=O 5.61%, Cc1ccc(CNC(=O)c2c[nH]c3ccc(S(=O)(=O)Nc4ccc(C(C)C)cc4)cc3c2=O)cc1 -2.97%, COCCn1c(CNC(=O)c2cc([N+](=O)[O-])ccc2Cl)nc2cccnc21 1.02%, COc1ccc(C(=O)Nc2onc3c2CCCC3)cc1 5.32%, COc1ccc(NC(=O)Cn2cnc3c(nc4n3CCCCC4)c2=O)c(OC)c1 -5.15%, COCCCn1c(=N)c(C(=O)NC2CCCCC2)cc2c(=O)n3ccccc3nc21 -6.09%, COc1ccc(C2=CC(c3ccc(N(C)C)cc3)n3nnnc3N2)cc1 (stereo not drawn) -6.07%, Cc1c(CNC2CCCCCC2)c(C(=O)O)c(C)n1Cc1c(F)cccc1Cl -3.04%, CCOC(=O)c1ccccc1NC(=O)Cc1c(C(=O)O)c(C)cn1C -0.0106%, CCOC(=O)c1ccc(N2C(=O)c3n[nH]c(C)c3C2c2ccc(O)c(OC)c2)cc1 (stereo not drawn) -6.26%, COc1ccc(N2CCN(C(=O)Cn3cnc4sc(C)c(S(=O)(=O)N5CCC(C)CC5)c4c3=O)CC2)cc1 -18.5%
